Results taken from ChEMBL document CHEMBL5606458, “ASAP - ZIKV NS2B-NS3 protease fluorescence single point” (2024).
Hit rate of the full screen: of about 2,700 compounds, about 160 (5.9%) showed an effect of 50% or more. Some of the results follow.

Target: Nonstructural protein 3 (Zika virus) (UniProt A0A024AXB9)
[1] = PRVABC59, Concentration 15.0 uM, Number of replicates 1.0
[2] = PRVABC59, Concentration 50.0 uM, Number of replicates 1.0

Sequence of UniProt A0A024AXB9 (A0A024AXB9 as listed by the source): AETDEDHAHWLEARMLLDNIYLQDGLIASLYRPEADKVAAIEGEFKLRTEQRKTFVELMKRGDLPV

## CN(Cc1nc(-c2cccnc2)no1)C(=O)c1cc(Cl)ccc1NS(=O)(=O)c1ccc(Oc2ccccc2Cl)cc1
[1]
  inhibition: 17.5%

## Oc1c(CNCc2nnc3ccccn23)ccc(F)c1F
PRVABC59, Concentration 49.5 uM, Number of replicates 2.0, Standard deviation 0.43552041298986643 %
  inhibition: 3.78%
PRVABC59, Concentration 99.01 uM, Number of replicates 2.0, Standard deviation 1.449492497625442 %
  inhibition: 5.57%
PRVABC59, Concentration 198.0 uM, Number of replicates 2.0, Standard deviation 1.5520668001329512 %
  inhibition: 11.2%

## O=Cc1ccc(N2CCC(C(=O)Nc3ccc(F)c(Br)c3)CC2)cc1
[2]
  inhibition: 21.1%

## NC(=O)c1ccc(CNC(=O)NCc2ccc(OCc3ccccc3)cc2)cc1
PRVABC59, Concentration 49.5 uM, Number of replicates 2.0, Standard deviation 0.3403841863075598 %
  inhibition: -2.38%
PRVABC59, Concentration 99.01 uM, Number of replicates 2.0, Standard deviation 1.5524843489611484 %
  inhibition: 1.69%
PRVABC59, Concentration 198.0 uM, Number of replicates 2.0, Standard deviation 0.6537868242088397 %
  inhibition: -0.929%

## COc1ccc(CN(C)C(=O)C2CCN(c3ccc(C=O)cc3)CC2)c(OC)c1
[2]
  inhibition: 24.2%

## CC(C)(CO)NC(=O)c1cc(Cl)cc(CCc2ccccn2)c1
PRVABC59, Concentration 49.5 uM, Number of replicates 2.0, Standard deviation 2.485999069166943 %
  inhibition: -2.62%
PRVABC59, Concentration 99.01 uM, Number of replicates 2.0, Standard deviation 3.2080054251149557 %
  inhibition: -2.2%
PRVABC59, Concentration 198.0 uM, Number of replicates 2.0, Standard deviation 3.186673566921152 %
  inhibition: -0.254%

## O=C(c1cc(Cl)ccc1NS(=O)(=O)c1ccc(Oc2ccccc2Cl)cc1)N1CCc2c(Br)cccc2C1
[1]
  inhibition: 16.3%

## Cc1cc(CO)c2cccc(Cc3cccc(C(=O)Nc4cc(O)[nH]n4)c3)c2n1
PRVABC59, Concentration 49.95 uM, Number of replicates 2.0, Standard deviation 1.5206029976078104 %
  inhibition: 11.6%
PRVABC59, Concentration 99.9 uM, Number of replicates 2.0, Standard deviation 1.0224744526793752 %
  inhibition: 28.2%

## O=Cc1ccc(N2CCC(C(=O)Nc3ccc4c(c3)C(=O)NC4=O)CC2)cc1
[2]
  inhibition: 29.5%

## CCN1CCN(c2ccc(NC(=O)c3cc(Cl)ccc3NS(=O)(=O)c3ccc(Oc4ccccc4Cl)cc3)cc2)CC1
[1]
  inhibition: 17.1%

## COc1cc(Cc2cc(N)nc(C(F)(F)F)c2)nc(N2CCNCC2)n1
PRVABC59, Concentration 49.5 uM, Number of replicates 2.0, Standard deviation 3.7983973094805132 %
  inhibition: 3.61%
PRVABC59, Concentration 99.01 uM, Number of replicates 2.0, Standard deviation 3.6119960441516255 %
  inhibition: 6.33%
PRVABC59, Concentration 198.0 uM, Number of replicates 2.0, Standard deviation 4.66573368035723 %
  inhibition: 11.4%

## CC(C)Nc1nc2ccc(C(=O)Nc3nnc4cccnn34)cc2[nH]1
PRVABC59, Concentration 49.5 uM, Number of replicates 2.0, Standard deviation 0.9697827366255707 %
  inhibition: -0.393%
PRVABC59, Concentration 99.01 uM, Number of replicates 2.0, Standard deviation 0.6935537034045963 %
  inhibition: 2.43%
PRVABC59, Concentration 198.0 uM, Number of replicates 2.0, Standard deviation 2.0309794167135116 %
  inhibition: 7.61%

## Cc1nn(Cc2noc(-c3ccccc3)n2)cc1C1CCNCC1
PRVABC59, Concentration 49.5 uM, Number of replicates 2.0, Standard deviation 1.8564024497343552 %
  inhibition: 3.16%
PRVABC59, Concentration 99.01 uM, Number of replicates 2.0, Standard deviation 0.10461286127628412 %
  inhibition: 3.59%
PRVABC59, Concentration 198.0 uM, Number of replicates 2.0, Standard deviation 0.45839451920109286 %
  inhibition: 7.2%

## COc1cc(F)ccc1CNC(=O)c1cc(Cl)ccc1NS(=O)(=O)c1ccc(Oc2ccccc2Cl)cc1
[1]
  inhibition: 28.6%

## O=Cc1ccc(N2CCC(C(=O)N[C@H]3CC(=O)N(Cc4ccccc4)C3)CC2)cc1
[2]
  inhibition: 25.3%

## Cc1ccc2[nH]cc(CCNC(=O)c3cc(Cl)ccc3NS(=O)(=O)c3ccc(Oc4ccccc4Cl)cc3)c2c1
[1]
  inhibition: 32.7%

## O=Cc1ccc(N2CCC(C(=O)Nc3nnc(-c4ccncc4)s3)CC2)cc1
[2]
  inhibition: 1.3%

## O=C(Nc1ccc(O)cc1)c1cccc(OCc2c(Cl)cccc2Cl)c1
PRVABC59, Concentration 49.5 uM, Number of replicates 2.0, Standard deviation 0.3020634287044847 %
  inhibition: 8.92%
PRVABC59, Concentration 99.01 uM, Number of replicates 2.0, Standard deviation 0.4769425042937671 %
  inhibition: 12.1%
PRVABC59, Concentration 198.0 uM, Number of replicates 2.0, Standard deviation 0.005961250253380851 %
  inhibition: 17.1%

## Cc1ccc(C(=O)NC[C@@H](O)CN2CCCC2)cc1OCCN
PRVABC59, Concentration 49.5 uM, Number of replicates 2.0, Standard deviation 0.8034634963080326 %
  inhibition: 1.48%
PRVABC59, Concentration 99.01 uM, Number of replicates 2.0, Standard deviation 0.5019541300740721 %
  inhibition: 5.86%
PRVABC59, Concentration 198.0 uM, Number of replicates 2.0, Standard deviation 0.4278404142542113 %
  inhibition: 10.7%

## O=C(Nc1cccc2ccc(O)cc12)c1cc(Cl)ccc1NS(=O)(=O)c1ccc(Oc2ccccc2Cl)cc1
[1]
  inhibition: 39.3%

## O=Cc1ccc(N2CCC(C(=O)Nc3ccc(Cl)c(Cl)c3F)CC2)cc1
[2]
  inhibition: 23.5%

## O=Cc1ccc(N2CCC(C(=O)N3CCN(c4cccc([N+](=O)[O-])c4)CC3)CC2)cc1
[2]
  inhibition: 20.3%

## O=Cc1ccc(N2CCC(C(=O)Nc3ncccc3OCc3ccccc3)CC2)cc1
[2]
  inhibition: 22%

## O=Cc1ccc(N2CCC(C(=O)NCCCn3nccc3C3CC3)CC2)cc1
[2]
  inhibition: 25.6%

## C=CCN(C(=O)C1CCN(c2ccc(C=O)cc2)CC1)[C@H]1CCS(=O)(=O)C1
[2]
  inhibition: 27.6%

## Cc1nc([C@H]2CCCNC2)[nH]c1C(=O)N1CC[C@H](Oc2ccc(C(N)=O)cc2)C1
PRVABC59, Concentration 49.5 uM, Number of replicates 2.0, Standard deviation 1.6901316572191802 %
  inhibition: -1.6%
PRVABC59, Concentration 99.01 uM, Number of replicates 2.0, Standard deviation 1.3004168395860143 %
  inhibition: 0.561%
PRVABC59, Concentration 198.0 uM, Number of replicates 2.0, Standard deviation 1.4460471613470702 %
  inhibition: 2.32%

## CN(C)Cc1ccc(CN(C)C(=O)c2cc(Cl)ccc2NS(=O)(=O)c2ccc(Oc3ccccc3Cl)cc2)cc1
[1]
  inhibition: 5.74%

## CN(Cc1cccc2cccnc12)C(=O)C1CCN(c2ccc(C=O)cc2)CC1
[2]
  inhibition: 30.6%

## Cc1nn(C[C@@H]2CC3(CC3)S(=O)(=O)N2)cc1C1CCNCC1
PRVABC59, Concentration 49.5 uM, Number of replicates 2.0, Standard deviation 1.0998701435927791 %
  inhibition: -1.87%
PRVABC59, Concentration 99.01 uM, Number of replicates 2.0, Standard deviation 1.1827229663045253 %
  inhibition: -1.5%
PRVABC59, Concentration 198.0 uM, Number of replicates 2.0, Standard deviation 1.3815696059428009 %
  inhibition: 0.267%

## O=C(CNC(=O)c1cc(Cl)ccc1NS(=O)(=O)c1ccc(Oc2ccccc2Cl)cc1)c1ccc([N+](=O)[O-])cc1
[1]
  inhibition: 33%

## c1cncc(CN2CC[C@H](c3c[nH]c4ccccc34)C2)c1
PRVABC59, Concentration 49.5 uM, Number of replicates 2.0, Standard deviation 1.5559964247741371 %
  inhibition: 1.47%
PRVABC59, Concentration 99.01 uM, Number of replicates 2.0, Standard deviation 1.8994947363510455 %
  inhibition: 5.35%
PRVABC59, Concentration 198.0 uM, Number of replicates 2.0, Standard deviation 2.09431466608259 %
  inhibition: 12.9%

## CC(C)(C)OC(=O)N[C@H](C(=O)Nc1cccc(C(N)=O)c1)c1ccc(OCc2ccccc2)cc1
PRVABC59, Concentration 49.5 uM, Number of replicates 2.0, Standard deviation 0.581616394206695 %
  inhibition: 5.19%
PRVABC59, Concentration 99.01 uM, Number of replicates 2.0, Standard deviation 2.3700535103819584 %
  inhibition: 6.98%
PRVABC59, Concentration 198.0 uM, Number of replicates 2.0, Standard deviation 2.011820976667005 %
  inhibition: 5.29%

## Cc1[nH]nnc1CNC(=O)[C@]1(c2ccc(F)cc2)CCCNC1
PRVABC59, Concentration 49.5 uM, Number of replicates 2.0, Standard deviation 1.12958832901972 %
  inhibition: -0.326%
PRVABC59, Concentration 99.01 uM, Number of replicates 2.0, Standard deviation 1.362760310389359 %
  inhibition: -0.319%
PRVABC59, Concentration 198.0 uM, Number of replicates 2.0, Standard deviation 0.37566590325190835 %
  inhibition: -0.812%

## CCN(CCOc1ccccc1C)C(=O)C1CCN(c2ccc(C=O)cc2)CC1
[2]
  inhibition: 25.1%

## O=C(Nc1ccc(I)cc1F)c1cc(Cl)ccc1NS(=O)(=O)c1ccc(Oc2ccccc2Cl)cc1
[1]
  inhibition: 67.5%

## O=Cc1ccc(N2CCC(C(=O)Nc3ccc(N4CCOCC4=O)cc3)CC2)cc1
[2]
  inhibition: 15.6%

## CC(C)(C)OC(=O)[C@H]1CCCN1C(=O)C1CCN(c2ccc(C=O)cc2)CC1
[2]
  inhibition: 22.1%

## COCCN(Cc1c(C)nn(C)c1C)C(=O)C1CCN(c2ccc(C=O)cc2)CC1
[2]
  inhibition: 19.5%

## C[C@@H](C(=O)c1cccc(Cl)c1)N(C(=O)c1cc(Cl)ccc1NS(=O)(=O)c1ccc(Oc2ccccc2Cl)cc1)C(C)(C)C
[1]
  inhibition: 14.5%
